In the antibiotic and cytotoxicity screens of Wong et al. (2023):
The list shows a part of the results.

Columns and labels:
HSkMC = human skeletal muscle cells; experiment: cytotoxicity call (relative viability < 0.9); settings: 10 µM
HepG2 = experiment: cytotoxicity call (relative viability < 0.9); settings: 10 µM
S. aureus RN4220 = experiment: growth inhibition call (relative growth <= 0.2); settings: 50 µM

Compound | cytotoxicity call (HSkMC) | cytotoxicity call (HepG2) | growth inhibition call (S. aureus RN4220)
CC(C)NC(=O)N(C)C[C@@H]1OCCCC[C@@H](C)Oc2ccc(NS(C)(=O)=O)cc2C(=O)N([C@H](C)CO)C[C@@H]1C | inactive | inactive | inactive
C[C@H](CO)N1C[C@H](C)[C@@H](CN(C)CC2CCOCC2)Oc2ncc(C#CCc3ccccc3)cc2C1=O | inactive | inactive | inactive
C/C(=C\CO)CC[C@H](C)CCC[C@H](C)CCCC(C)C | inactive | inactive | inactive
C[C@@H]1CN([C@@H](C)CO)C(=O)c2cc(NC(=O)C3CCCCC3)ccc2O[C@@H](C)CCCCO[C@H]1CN(C)Cc1ccc(Cl)c(Cl)c1 | inactive | active | inactive
C[C@@H]1CN([C@H](C)CO)C(=O)c2cc(C#Cc3ccccc3F)cnc2O[C@H]1CN(C)C(=O)Cc1cccnc1 | inactive | inactive | inactive
CCCCCCCCC#CCCCCCCCC(=O)O | inactive | inactive | inactive
CC(C)OC(=O)OCOP(=O)(CO[C@H](C)Cn1cnc2c(N)ncnc21)OCOC(=O)OC(C)C | inactive | inactive | inactive
CC12CCC(=O)C=C1CCC1C2CCC2(C)C1CCC2(O)C(=O)CO (stereo unspecified) | inactive | inactive | inactive
CC(=O)N1Cc2cc(C(=O)NCc3cccc(F)c3)nc(-c3cccc(C4=CCCCC4)c3)c2[C@H]1CCO | active | inactive | inactive
Cc1noc(C)c1S(=O)(=O)N(C)C[C@H]1OCCCC[C@H](C)Oc2ccc(NS(=O)(=O)c3cn(C)cn3)cc2C(=O)N([C@H](C)CO)C[C@@H]1C | inactive | inactive | inactive
C[C@@H]1CN([C@@H](C)CO)C(=O)c2c(c3ccccc3n2C)-c2ccccc2CO[C@@H]1CN(C)C(=O)NC1CCCCC1 | inactive | inactive | inactive
CO[C@H]1CN(C)C(=O)c2cc(NC(=O)c3ccc(F)cc3)ccc2OC[C@@H](C)N(C(=O)CN(C)C)C[C@H]1C | inactive | inactive | inactive
C[C@@H]1CN([C@H](C)CO)C(=O)Cc2cc(NS(C)(=O)=O)ccc2O[C@@H]1CN(C)S(=O)(=O)c1ccc(Cl)cc1 | inactive | inactive | inactive
Cc1ccc(S(=O)(=O)N(C)C[C@@H]2Oc3c(NS(=O)(=O)c4ccccc4)cccc3C(=O)N([C@@H](C)CO)C[C@@H]2C)cc1 | inactive | inactive | inactive
C[C@@H]1CN([C@H](C)CO)C(=O)c2cc(NS(=O)(=O)c3ccccc3)ccc2O[C@@H](C)CCCCO[C@@H]1CN(C)Cc1ccc(C(=O)O)cc1 | inactive | inactive | inactive
Cc1ccc(S(=O)(=O)Nc2ccc3c(c2)C(=O)N([C@H](C)CO)C[C@H](C)[C@H](CN(C)C(=O)Nc2c(C)noc2C)OCCCC[C@H](C)O3)cc1 | inactive | inactive | inactive
Cc1ccc(S(=O)(=O)N(C)C[C@@H]2Oc3c(NC(=O)c4cc(C)nn4C)cccc3C(=O)N([C@@H](C)CO)C[C@H]2C)cc1 | inactive | inactive | inactive
O=C(C[C@@H]1C=C[C@@H](NC(=O)c2ccncc2)[C@H](CO)O1)NCc1ccncn1 | inactive | inactive | inactive
Cc1noc(C)c1S(=O)(=O)Nc1ccc2c(c1)CC(=O)N([C@H](C)CO)C[C@@H](C)[C@H](CN(C)S(=O)(=O)c1ccc(Cl)cc1)O2 | inactive | inactive | inactive

Compound | cytotoxicity call (HSkMC) | cytotoxicity call (HepG2) | growth inhibition call (S. aureus RN4220)
Cc1noc(C)c1S(=O)(=O)N(C)C[C@H]1Oc2ccc(NS(C)(=O)=O)cc2CC(=O)N([C@@H](C)CO)C[C@H]1C | inactive | inactive | inactive
O=C1CO[C@H]2CN(c3ccccn3)C[C@@H]2N1 | inactive | inactive | inactive
O=C(O)C12CC(C1)C2 | inactive | inactive | inactive
Cc1noc(C)c1S(=O)(=O)N(C)C[C@@H]1Oc2c(NS(=O)(=O)c3ccccc3)cccc2C(=O)N([C@H](C)CO)C[C@@H]1C | inactive | inactive | inactive
CC(=O)OCC(=O)C1(O)C(C)CC2C3CCC4=CC(=O)C=CC4(C)C3(F)C(O)CC21C (stereo unspecified) | inactive | inactive | inactive
C[C@@H]1CCCCO[C@@H](CN(C)C(=O)Nc2cccc3ccccc23)[C@H](C)CN([C@@H](C)CO)C(=O)c2cc(NS(=O)(=O)c3ccc(F)cc3)ccc2O1 | inactive | inactive | inactive
Cc1ccc(S(=O)(=O)N(C)C[C@@H]2OCCCC[C@H](C)Oc3ccc(NC(=O)Cc4ccccc4)cc3C(=O)N([C@H](C)CO)C[C@@H]2C)cc1 | inactive | active | inactive
CCc1cccc2cc[nH]c12 | inactive | inactive | inactive
C[C@@H]1CN([C@@H](C)CO)C(=O)c2cc(NC(=O)Cn3cnnn3)ccc2O[C@@H]1CN(C)Cc1ccc(Oc2ccccc2)cc1 | inactive | inactive | inactive
COCCO[C@H]1CCN[C@H]1Cc1cnn(C)c1 | inactive | inactive | inactive
CN1C(=O)[C@@]2(c3cc(Cl)ccc31)[C@H](C(=O)O)[C@H]1C(=O)O[C@H](c3ccccc3)[C@H](c3ccccc3)N1[C@@H]2c1ccc(F)cc1 | inactive | inactive | active
O=C1Sc2cccc3cccc1c23 | inactive | inactive | inactive
O=C(O)c1cn2cccc(O)c2n1 | inactive | inactive | inactive
COc1ccccc1S(=O)(=O)N[C@@H]1C=C[C@@H](CC(=O)N2CCOCC2)O[C@H]1CO | inactive | inactive | inactive
C[C@H]1CN([C@@H](C)CO)C(=O)CCCn2cc(nn2)CO[C@@H]1CN(C)C(=O)Nc1ccc(C(F)(F)F)cc1 | inactive | inactive | inactive
CCCNC(=O)N(C)C[C@H]1Oc2cc(-c3ccccc3F)ccc2S(=O)(=O)N([C@H](C)CO)C[C@H]1C | inactive | inactive | inactive
COc1ccc2c3c([nH]c2c1)[C@H](CO)N(C[C@]13CN(C1)S(=O)(=O)c1ccccc1)C(=O)c1cnccn1 | inactive | inactive | inactive
C[C@@H]1CCCCO[C@@H](CN(C)Cc2ccc(C(F)(F)F)cc2)[C@@H](C)CN([C@@H](C)CO)C(=O)c2cc(N(C)C)ccc2O1 | inactive | inactive | inactive
CS(=O)(=O)N1[C@@H]2c3cccc(=O)n3C[C@H]1[C@H](CO)[C@H]2C(=O)NCc1ccccc1 | inactive | inactive | inactive

Compound | cytotoxicity call (HSkMC) | cytotoxicity call (HepG2) | growth inhibition call (S. aureus RN4220)
O=C(N/N=C/c1ccc(B(O)O)cc1)c1ccccn1 | inactive | inactive | inactive
COc1ccc(S(=O)(=O)N(C)C[C@@H]2Oc3c(cccc3N(C)C)C(=O)N([C@H](C)CO)C[C@@H]2C)cc1 | inactive | inactive | inactive
Cc1noc(C)c1NC(=O)Nc1cccc2c1O[C@H](CN(C)Cc1ccc(C(=O)Nc3ccccc3N)cc1)[C@@H](C)CN([C@H](C)CO)C2=O | inactive | inactive | inactive
O=C(O)c1ccc(/C2=C3\C=CC(=N3)/C(c3ccc(C(=O)O)cc3)=c3/cc/c4[n]3[Mn+][n]3c2ccc3/C(c2ccc(C(=O)O)cc2)=C2/C=CC(=N2)\C=4c2ccc(C(=O)O)cc2)cc1 | inactive | inactive | inactive
CN1CCN(C(=O)C[C@H]2C[C@H]3c4cc(NS(=O)(=O)c5ccc(F)cc5)ccc4O[C@H]3[C@H](CO)O2)CC1 | inactive | inactive | inactive
CO[C@@H]1CN(C)C(=O)c2ccc(NC(=O)C3CC3)cc2OC[C@@H](C)N(C(=O)C2CCOCC2)C[C@@H]1C | inactive | inactive | inactive
C[C@@H]1CN([C@@H](C)CO)C(=O)c2cccc(NC(=O)Nc3ccc(C(F)(F)F)cc3)c2O[C@@H]1CN(C)Cc1ccc(C(F)(F)F)cc1 | active | inactive | inactive
C[C@H](CO)N1C[C@H](C)[C@@H](CN(C)S(=O)(=O)c2ccccc2F)Oc2ncc(C#Cc3ccccc3F)cc2C1=O | active | inactive | inactive
C[C@H](CO)N1C[C@H](C)[C@@H](CN(C)C(=O)Nc2cccc3ccccc23)Oc2ccc(NC(=O)C3CCCCC3)cc2CC1=O | inactive | inactive | inactive
COc1ccc(S(=O)(=O)Nc2ccc3c(c2)C(=O)N([C@H](C)CO)C[C@H](C)[C@@H](CN(C)S(C)(=O)=O)OCCCC[C@@H](C)O3)cc1 | inactive | inactive | inactive
C[C@@H]1CN([C@@H](C)CO)C(=O)c2cc(NC(=O)Cn3cnnn3)ccc2O[C@@H]1CN(C)Cc1ccc(Cl)c(Cl)c1 | inactive | inactive | inactive
C[C@@H]1CN([C@@H](C)CO)C(=O)c2cc(NC(=O)CCCN(C)C)ccc2O[C@H]1CN(C)C(=O)NC1CCCCC1 | inactive | inactive | inactive
C[C@@H]1CCCCO[C@@H](CN(C)S(=O)(=O)c2ccc(F)cc2)[C@H](C)CN([C@@H](C)CO)C(=O)c2cc(NC(=O)c3ccccc3)ccc2O1 | inactive | inactive | inactive
NC(=O)c1cn(Cc2c(F)cccc2F)nn1 | inactive | inactive | inactive
C[C@@H]1CN([C@H](C)CO)C(=O)c2cc(NS(C)(=O)=O)ccc2O[C@@H]1CN(C)Cc1ccc(C(=O)O)cc1 | inactive | inactive | inactive
O=C(C[C@H]1C[C@H]2c3cc(NS(=O)(=O)c4ccc(F)cc4)ccc3O[C@H]2[C@H](CO)O1)NC1CCCCC1 | inactive | inactive | inactive
Cc1noc(C)c1NC(=O)N(C)C[C@H]1Oc2ccc(NC(=O)NC(C)C)cc2CC(=O)N([C@H](C)CO)C[C@@H]1C | inactive | inactive | inactive
C[C@@H]1CN([C@@H](C)CO)C(=O)c2cccc(NC(=O)Nc3ccc4c(c3)OCO4)c2O[C@@H]1CN(C)Cc1ccc(Cl)c(Cl)c1 | inactive | inactive | inactive
COc1ccccc1NC(=O)N(C)C[C@@H]1OCc2ccccc2-c2c(n(C)c3ccccc23)C(=O)N([C@@H](C)CO)C[C@@H]1C | inactive | inactive | inactive
